Test results: the supplement of paper PMC8728848
Some of the results follow.

Columns and labels:
Assay in all cases: glycan array binding signal (z-score within array); higher = stronger binding
Conditions in all cases: glycan notation: IUPAC condensed, linker removed
[1] = target: Gal(b1-4)GlcNAc(b1-3)Gal(b1-4)GlcNAc(b1-3)Gal(b1-4)GlcNAc(b1-3)Gal(b1-4)GlcNAc(b1-3)Gal(b1-4)GlcNAc(b1-2)Man(a1-3)[Gal(b1-4)GlcNAc(b1-3)Gal(b1-4)GlcNAc(b1-3)Gal(b1-4)GlcNAc(b1-3)Gal(b1-4)GlcNAc(b1-3)Gal(b1-4)GlcNAc(b1-2)Man(a1-6)]Man(b1-4)GlcNAc(b1-4)[Fuc(a1-6)]GlcNAc
Outline: (§1)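 Arrays were curated from the Consortium for Functional Glycomics database, 3228 in total, and kept only where the protein sequence was available. Binding is expressed as a within-array Z-score. This score was averaged across arrays of the same protein sequence at different concentrations or buffers and across linkers, and negative values can be read as non-binding.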

[2] = target: Gal(b1-4)GlcNAc(b1-3)Gal(b1-4)GlcNAc(b1-3)Gal(b1-4)GlcNAc(b1-3)Gal(b1-4)GlcNAc(b1-3)Gal(b1-4)GlcNAc(b1-2)[Gal(b1-4)GlcNAc(b1-3)Gal(b1-4)GlcNAc(b1-3)Gal(b1-4)GlcNAc(b1-3)Gal(b1-4)GlcNAc(b1-3)Gal(b1-4)GlcNAc(b1-6)]Man(a1-6)[Gal(b1-4)GlcNAc(b1-3)Gal(b1-4)GlcNAc(b1-3)Gal(b1-4)GlcNAc(b1-3)Gal(b1-4)GlcNAc(b1-3)Gal(b1-4)GlcNAc(b1-2)Man(a1-3)]Man(b1-4)GlcNAc(b1-4)[Fuc(a1-6)]GlcNAc
Outline: as §1

[3] = target: Gal(b1-4)GlcNAc(b1-3)Gal(b1-4)GlcNAc(b1-3)Gal(b1-4)GlcNAc(b1-3)Gal(b1-4)GlcNAc(b1-3)Gal(b1-4)GlcNAc(b1-3)Gal(b1-4)GlcNAc(b1-2)Man(a1-3)[Gal(b1-4)GlcNAc(b1-3)Gal(b1-4)GlcNAc(b1-3)Gal(b1-4)GlcNAc(b1-3)Gal(b1-4)GlcNAc(b1-3)Gal(b1-4)GlcNAc(b1-3)Gal(b1-4)GlcNAc(b1-2)Man(a1-6)]Man(b1-4)GlcNAc(b1-4)GlcNAc
Outline: as §1

[4] = target: Gal(b1-4)GlcNAc(b1-3)Gal(b1-4)GlcNAc(b1-3)GalNAc
Outline: as §1

[5] = target: Gal(b1-4)GlcNAc(b1-3)Gal(b1-4)GlcNAc(b1-3)[Gal(b1-4)GlcNAc(b1-3)Gal(b1-4)GlcNAc(b1-6)]GalNAc
Outline: as §1

[6] = target: Gal(b1-4)GlcNAc(b1-3)Gal(b1-4)GlcNAc(b1-6)[Gal(b1-3)]GalNAc
Outline: as §1

[7] = target: Gal(b1-4)GlcNAc(b1-3)Gal(b1-4)[Fuc(a1-3)]GlcNAc(b1-3)Gal(b1-4)[Fuc(a1-3)]GlcNAc
Outline: as §1

[8] = target: Gal(b1-4)GlcNAc(b1-3)GalNAc
Outline: as §1

[9] = target: Gal(b1-4)GlcNAc(b1-3)[Fuc(a1-3)GlcNAc(b1-6)]Gal(b1-4)Glc
Outline: as §1

[10] = target: Gal(b1-4)GlcNAc(b1-3)[Gal(b1-4)GlcNAc(b1-6)]Gal(b1-4)GlcNAc
Outline: as §1

[11] = target: Gal(b1-4)GlcNAc(b1-3)[Gal(b1-4)GlcNAc(b1-6)]GalNAc
Outline: as §1

[12] = target: Gal(b1-4)GlcNAc(b1-3)[GlcNAc(b1-6)]Gal(b1-4)GlcNAc
Outline: as §1

[13] = target: Gal(b1-4)GlcNAc(b1-6)Gal(b1-4)GlcNAc
Outline: as §1

[14] = target: Gal(b1-4)GlcNAc(b1-6)Gal(b1-4)GlcNAc(b1-6)GalNAc
Outline: as §1

[15] = target: Gal(b1-4)GlcNAc(b1-6)GalNAc
Outline: as §1

[16] = target: Gal(b1-4)GlcNAc(b1-6)[Gal(b1-3)]GalNAc
Outline: as §1

[17] = target: Gal(b1-4)GlcNAc(b1-6)[Gal(b1-4)GlcNAc(b1-3)]GalNAc
Outline: as §1

Gal(b1-4)GlcNAc6P = target: Gal(b1-4)GlcNAc6P
Outline: as §1

Gal(b1-6)Gal = target: Gal(b1-6)Gal
Outline: as §1

Gal3S(b1-3)GalNAc = target: Gal3S(b1-3)GalNAc
Outline: as §1

Gal3S(b1-3)GlcNAc = target: Gal3S(b1-3)GlcNAc
Outline: as §1

[18] = target: Gal3S(b1-3)[Fuc(a1-4)]GlcNAc
Outline: as §1

Gal3S(b1-4)Glc = target: Gal3S(b1-4)Glc
Outline: as §1

Gal3S(b1-4)Glc6S = target: Gal3S(b1-4)Glc6S
Outline: as §1

Gal3S(b1-4)GlcNAc = target: Gal3S(b1-4)GlcNAc
Outline: as §1

Gal3S(b1-4)GlcNAc6S = target: Gal3S(b1-4)GlcNAc6S
Outline: as §1

[19] = target: Gal3S(b1-4)[Fuc(a1-3)]Glc
Outline: as §1

[20] = target: Gal3S(b1-4)[Fuc(a1-3)]Glc6S
Outline: as §1

[21] = target: Gal3S(b1-4)[Fuc(a1-3)]GlcNAc
Outline: as §1

[22] = target: Gal3S(b1-4)[Fuc(a1-3)]GlcNAc6S
Outline: as §1

Gal3S4S(b1-4)GlcNAc = target: Gal3S4S(b1-4)GlcNAc
Outline: as §1

Gal3S6S(b1-4)GlcNAc = target: Gal3S6S(b1-4)GlcNAc
Outline: as §1

Gal3S6S(b1-4)GlcNAc6S = target: Gal3S6S(b1-4)GlcNAc6S
Outline: as §1

Gal4S(b1-4)GlcNAc = target: Gal4S(b1-4)GlcNAc
Outline: as §1

Gal4S6S(b1-4)GlcNAc = target: Gal4S6S(b1-4)GlcNAc
Outline: as §1

Gal6P(b1-4)GlcNAc = target: Gal6P(b1-4)GlcNAc
Outline: as §1

Gal6S(b1-3)GlcNAc = target: Gal6S(b1-3)GlcNAc
Outline: as §1

B1: Gal 8 (Homo sapiens) (protein)
chain: MLSLNNLQNIIYNPVIPYVGTIPDQLDPGTLIVICGHVPSDADRFQVDLQNGSSVKPRADVAFHFNPRFKRAGCIVCNTLINEKWGREEITYDTPFKREKSFEIVIMVLKDKFQVAVNGKHTLLYGHRIGPEKIDTLGIYGKVNIHSIGFSFSSDLQSTQASSLELTEISRENVPKSGTPQLQTVSPSWDLQGHGSETFCSVLWTRVFLEIAFCRPIGLTVASFQSLPFAARLNTPMGPGRTVVVKGEVNANAKSFNVDLLAGKSKDIALHLNPRLNIKAFVRNSFLQESWGEEERNITSFPFSPGMYFEMIIYCDVREFKVAVNGVHSLEYKHRFKELSSIDTLEINGDIHLLEVRSW
Which results are given for B1?
glycan array binding signal (z-score) [1]: 2.93; glycan array binding signal (z-score) [2]: 5.3; glycan array binding signal (z-score) [3]: 5.33; glycan array binding signal (z-score) [4]: -0.13; glycan array binding signal (z-score) [5]: -0.115; glycan array binding signal (z-score) [6]: 0.136; glycan array binding signal (z-score) [7]: -0.355; glycan array binding signal (z-score) [8]: -0.367; glycan array binding signal (z-score) [9]: -0.355; glycan array binding signal (z-score) [10]: -0.358; glycan array binding signal (z-score) [11]: -0.685; glycan array binding signal (z-score) [12]: -0.298; glycan array binding signal (z-score) [13]: -0.338; glycan array binding signal (z-score) [14]: -0.374; glycan array binding signal (z-score) [15]: -0.375; glycan array binding signal (z-score) [16]: -0.305; glycan array binding signal (z-score) [17]: -0.356; glycan array binding signal (z-score) (Gal(b1-4)GlcNAc6P): -0.356; glycan array binding signal (z-score) (Gal(b1-6)Gal): -0.358; glycan array binding signal (z-score) (Gal3S(b1-3)GalNAc): 0.661; glycan array binding signal (z-score) (Gal3S(b1-3)GlcNAc): 0.409; glycan array binding signal (z-score) [18]: -0.363; glycan array binding signal (z-score) (Gal3S(b1-4)Glc): 0.757; glycan array binding signal (z-score) (Gal3S(b1-4)Glc6S): 3.83; glycan array binding signal (z-score) (Gal3S(b1-4)GlcNAc): -0.039; glycan array binding signal (z-score) (Gal3S(b1-4)GlcNAc6S): 1.7; glycan array binding signal (z-score) [19]: -0.351; glycan array binding signal (z-score) [20]: -0.347; glycan array binding signal (z-score) [21]: -0.357; glycan array binding signal (z-score) [22]: -0.145; glycan array binding signal (z-score) (Gal3S4S(b1-4)GlcNAc): 2.1; glycan array binding signal (z-score) (Gal3S6S(b1-4)GlcNAc): -0.352; glycan array binding signal (z-score) (Gal3S6S(b1-4)GlcNAc6S): 0.048; glycan array binding signal (z-score) (Gal4S(b1-4)GlcNAc): -0.362; glycan array binding signal (z-score) (Gal4S6S(b1-4)GlcNAc): -0.26; glycan array binding signal (z-score) (Gal6P(b1-4)GlcNAc): -0.354; glycan array binding signal (z-score) (Gal6S(b1-3)GlcNAc): -0.354
